Reference: PubChem BioAssay AID493208 (National Center for Advancing Translational Sciences (NCATS), 2011)
About 340 (0.77%) of roughly 44,000 compounds were called active. Roughly 5% stayed inconclusive and do not appear here. The call rests on the fitted dose curve; in most records, active means well fitted inhibition curve with a large enough effect; inconclusive means small, poorly fitted or top-dose-only effect; inactive means flat fitted curve, though single readings scatter. The list shows a part of the results.

Assay: Acumen qHTS Assay for Inhibitors of the mTORC1 Signaling Pathway in MEF (Tsc2-/-, p53-/-) Cells: Sytravon;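 further: plate controls were DMSO for no effect and rapamycin for full effect; nearly all actives have a fitted effect of over 50% in size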
Conditions: phospho-rpS6 immunofluorescence/PI, 24 h; series mostly up to 38.3 µM; activity change, negative = inhibition: at the top concentration
Summary of the method: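 Plate MEFs (Tsc2-/-, p53-/-, empty vector) in DMEM/10% FBS; after 24 h add compound, incubate 24 h at 37 degree Celsius; fix in PFA/TX-100, block, stain phospho-rpS6 and 10 uM PI; scan at 488 nm; report % positive cells.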

Activity change, negative = inhibition, inactive:
COCCCNC(=O)CSc1nc2c(sc3ccccc32)c(=O)n1CCc1ccccc1 1.77%
COc1cc(NC(=O)CSc2nc3ccccc3nc2Cc2ccc(Cl)cc2)cc(OC)c1 0%
CCOC(=O)c1cccc(NC(=O)c2cc3c(-c4cccc(OC)c4)nn(C)c3s2)c1 -3.81%
Cc1ccc(S(=O)(=O)c2nc(S(C)(=O)=O)sc2N(C)Cc2ccccc2)cc1 1.03%
Cc1cccc(NC(=O)C2CCC(CNS(=O)(=O)c3csc(C(N)=O)c3)CC2)c1C (configuration not stated) 3.97%
Cc1nn2c(=O)cc(COc3ccc(/C=C(\C#N)C(=O)Nc4ccc(F)cc4)cc3)nc2s1 -0.379%
COc1cccc(Nc2cc(C)nc3nc(-c4ccc(Cl)cc4)nn23)c1 -2.28%
COc1ccc(NCc2cc3cc4c(cc3n(CC(=O)Nc3cc(C)cc(C)c3)c2=O)OCO4)cc1 -4.77%
Cc1nn(C)c2c1c(-c1ccccc1)cc(=O)n2CC(=O)Nc1ccccc1C(F)(F)F -14.9%
CCOC(=O)COc1ccccc1C1C(C(=O)OC)=C(C)NC2=C1C(=O)c1ccccc12 (configuration not stated) 5.93%
O=C(COc1ccccc1Cl)Nc1nnc(S(=O)(=O)N2CCCCCC2)s1 0%
O=C(NCCCc1nc2ccccc2n1Cc1c(F)cccc1Cl)C1CCCCC1 0.713%
COc1cc(NC(=O)Nc2cccc(-c3noc(C)n3)c2)cc(OC)c1OC -0.376%
Cc1cn2c(=O)cc(COc3ccc(Cl)cc3)nc2s1 3.37%
Cc1ccc(Cl)cc1NC(=O)Cc1ccc(-n2c(C)nc3cccnc32)cc1 0%
CCOc1ccc(-n2c(=O)c3c(C)c(C)sc3n(CC(=O)N(CC)Cc3ccccc3)c2=O)cc1 1.96%
CCOc1ccc(CNc2nc3nc(C)c(Cc4ccccc4)c(=O)n3[nH]2)cc1 7.34%
CCc1ccc(CNC(=O)C2Cc3cc(S(=O)(=O)N4CCCCCC4)ccc3N2C(C)=O)cc1 (configuration not stated) 0%
COc1ccc(N(Cc2cccs2)C(=O)c2ccc(OCC(C)C)cc2)cc1 -15.6%
CCCc1nn2c(=O)cc(COC(=O)c3ccccc3NC(=O)c3cccs3)nc2s1 26.1%
COc1cc(C2c3c(oc4ccccc4c3=O)C(=O)N2c2ccccn2)cc(OC)c1OC (configuration not stated) -4.21%
Cc1cccc(NC(=O)C2CCC(CNS(=O)(=O)c3ccc(Br)s3)CC2)c1 (configuration not stated) -14.7%
Cc1ccc(C)c(C(=O)c2c(N)c(-c3nc(-c4ccc5c(c4)OCO5)cs3)c3ccccn23)c1 0.0608%
Cc1ccc(OCC(=O)Nc2ccc(Cl)c(-c3nc4ncccc4o3)c2)c(C)c1 -4.95%
COc1cccc(C2CC(=O)N(c3ccc(F)cc3)C3=C2C(=O)OC3)c1OC (configuration not stated) -19.1%
Cn1ccc2c(OCC(=O)NCc3ccccc3)cccc2c1=O 0.742%
COCCNC(=O)c1c[nH]c2ccc(S(=O)(=O)Nc3ccc(F)cc3F)cc2c1=O -9.71%
CC(C)c1nn2c(=O)cc(COC(=O)c3cccc(NC(=O)c4cccs4)c3)nc2s1 3.9%
CCc1ccc(C2=NN(CCC(=O)NCCc3ccc(OC)c(OC)c3)C(=O)CC2)cc1 0.32%
CCCOc1ccc(-c2nonc2NC(=O)c2cc(OC)c(OC)c(OC)c2)cc1OCCC 2.45%
CCc1ccccc1NC(=O)CCOc1ccccc1 7.43%
Cc1ccc(N2CC(NC(=O)c3cc4ccccc4o3)CC2=O)cc1C (configuration not stated) -5.26%
COc1ccc(CSc2nc3ccncc3n2CC(=O)Nc2ccc(C)c(F)c2)cc1 -7.7%
CCc1ccccc1NC(=O)Cn1c(=O)n(-c2ccc(CC(=O)NCC3CCCO3)cc2)c(=O)c2ccccc21 (configuration not stated) -6.46%
Cc1ccccc1C(=O)Nc1ccc2nc(SCC(=O)N3CCc4ccccc43)sc2c1 -12.2%
COc1ccc(CNC(=O)c2ccc3c(c2)N(Cc2ccc(C)cc2)CCS3)cc1 3.37%
CCOC(=O)c1cnc2nc(NCc3cccc(Br)c3)[nH]n2c1=O 4.3%
COc1ccccc1CNC(=O)CC(c1ccc(C)cc1)N1Cc2ccccc2C1=O (configuration not stated) -6.71%
Cc1cc(C)cc(-n2ccn(Cc3ccccc3C)c(=O)c2=O)c1 9.53%
COc1ccc(CCNC(=O)CCS(=O)(=O)c2cc(Br)cc3c2N(C(C)=O)CC3)cc1OC -16%
Cc1cc(C)cc(NC(=O)C2CCCN2S(=O)(=O)c2ccc3c(c2)CCCC(=O)N3)c1 (configuration not stated) 5.98%
Cc1ccc(CNC(=O)C2COc3ccccc3C2)cc1 (configuration not stated) 0.579%
Clc1ccc(-c2nc3c4cnn(-c5ccccc5Br)c4ncn3n2)c(Cl)c1 -7.98%
COC(=O)CSc1nc2sc3c(c2c(=O)n1-c1ccccc1C)CC(C)(C)OC3 -12.7%
Cc1ccccc1NC(=O)c1sc2nc3n(c(=O)c2c1C)CCC3 -0.757%
Cc1ccc(OCC(=O)OC2=C(C(=O)c3ccccc3)N(C)S(=O)(=O)c3ccccc32)cc1 -0.193%
Cc1oc(-c2ccc(C(=O)NCCC(C)C)cc2)nc1CN1CCc2ccccc21 -2.71%
O=S(=O)(Nc1cccc(C(F)(F)F)c1)c1ccc(-c2cnc(C3CC3)o2)cc1 -15.4%
Cc1ccc(-n2nnc(-c3nc(-c4cccs4)no3)c2N)c(C)c1 -3.42%
CC(C)c1ccc(OCC(=O)Nc2c(C(=O)c3ccc(F)cc3)oc3ccccc23)cc1 1.24%
Cc1ccc(Nc2c(-c3ccsc3)nc3c(C)cccn23)cc1 -10.4%
COc1ccc(S(=O)(=O)NCc2cccn2Cc2cccc(C)c2)cc1 -0.522%
CCCCCSc1nc2sc3c(c2c(=O)n1-c1ccc(OC)cc1)CCN(C(C)=O)C3 -16.9%
COc1ccccc1NC(=O)CC(c1cc(OC)c(OC)c(OC)c1)N1Cc2ccccc2C1=O (configuration not stated) 0.0282%
Cc1c(C)n(C)c2ccc(C(=O)NCc3cccc(F)c3)cc12 -10.8%
COc1cc2c(cc1NC(=O)COc1ccc(Cl)cc1Br)oc1ccccc12 -7.88%
CCOC(=O)CSc1nnc2n(-c3ccccc3)c(=O)c3c4c(sc3n12)CC(C(C)(C)C)CC4 (configuration not stated) -0.795%
CCOc1cc2sc(N3CCC(C(=O)Nc4cc(C)cc(C)c4)CC3)nc2cc1Br -1.61%
Cc1cc(=O)c2cc(C(=O)Nc3ccccc3C)ccc2[nH]1 0.666%
COC(=O)c1cc2sc(Cl)cc2n1Cc1cc(C)ccc1C -3.01%
CCc1ccccc1NC(=O)Cn1c2ncccc2c(=O)n1-c1ccccc1 3.82%
COc1ccc(Cn2ccc3nc(C)c(C(=O)NCc4cccc(OC)c4)cc3c2=O)cc1 -0.0668%
Cc1ccc(-n2nc3c(=O)n(CC(=O)NCC(C)c4ccccc4)nc(C)c3c2C)cc1 (configuration not stated) -8.53%
COC(=O)c1ccc(CSc2nnc3ccc4ccccc4n23)cc1 -4.14%
COc1cc(F)c(S(=O)(=O)Nc2c(C)n(C)n(-c3ccccc3)c2=O)cc1OC -10.2%
CCn1cc2c(n1)-c1c(oc(C(=O)Nc3cccc(C(F)(F)F)c3)c1C)CC2 -3.99%
COc1ccccc1Cn1cc(C(=O)c2ccc(C)cc2)c(=O)c2cc3c(cc21)OCCO3 -5.68%
O=C(CN1CCSc2ccccc21)N1CCN(c2ccc(F)cc2)CC1 -3.06%
CCCN(Cc1cccs1)C(=O)Nc1cc(OC)ccc1OC -2.28%
Cc1ccc(N(C)C(=O)c2cc(S(=O)(=O)N3CCOCC3)cn2C)cc1 2.84%
COc1ccc(CCNC(=O)CCCCn2c(=O)c3ccccc3n(Cc3ccccc3Cl)c2=O)cc1OC -6.52%
COc1ccccc1-c1noc(CCCC(=O)Nc2cc(C)ccc2C)n1 3.54%
COc1ccc(C(=O)Nc2ccc(C(=O)OCc3cc(=O)n4nc(C5CC5)sc4n3)cc2)cc1 0%
Cc1ccc(-n2nc3c(N4CCC(C(=O)NCc5ccccc5Cl)CC4)nnc(C)c3c2C)cc1 0.371%
CC(=O)c1ccc(NC(=O)CCOc2ccccc2)cc1 -5.46%
COc1ccc(OC)c(S(=O)(=O)NCCc2csc(-c3cccc(F)c3)n2)c1 -4.24%
CCOC(=O)c1c(C)[nH]c(C)c1S(=O)(=O)NCC(=O)N1CCN(c2ccccc2OC)CC1 -8.24%
CCN(CC)C(=O)Nc1ccc2c(c1)N(Cc1ccccc1)C(=O)c1ccccc1S2 0.257%
COc1cc(C(=O)NC(c2ccc(Cl)cc2)c2cc(Cl)c3cccnc3c2O)cc(OC)c1OC (configuration not stated) -0.196%
CCc1cccc(C)c1NC(=O)CN1CCCN(Cc2ccccc2Cl)S1(=O)=O -3.62%
CCOc1ccccc1NC(=O)C(CC)n1c(C(=O)OC)cc2occc21 (configuration not stated) -2.88%
COc1ccc(N(C(=O)/C=C\C(=O)Nc2ccc(C)cc2)C(C(=O)NCc2ccco2)c2ccc(C)cc2)cc1 (configuration not stated) 6.66%
COc1ccc(Nc2oc(/C=C/c3cccc(OC)c3)nc2C#N)cc1 -25.2%
CCCn1c(=NC(=O)c2cc3ccccc3o2)c(C(=O)OCC)cc2c(=O)n3ccccc3nc21 -2.96%
O=C(Cn1ncc2ccsc2c1=O)N1CCN(c2ccccc2F)CC1 1.77%
CCCCN(CC)CCNC(=O)C1CCCN(S(=O)(=O)c2cccc3nsnc23)C1 (configuration not stated) -2.1%
O=S(=O)(c1ccc(-n2cnnn2)cc1)N1CCN(c2cccc(Cl)c2)CC1 -5.85%
Cc1c(C(=O)N2CCCCCC2)c(S(=O)(=O)N(Cc2ccccc2)C(C)(C)C)c(C)n1C -1.32%
Cc1ccc(-n2c(=O)c3cccnc3n2CC(=O)Nc2cc(Cl)ccc2C)cc1 4.94%
O=c1cc(-c2ccccc2)n2c(SCc3c(F)cccc3Cl)nnc2[nH]1 -6.34%
Cc1ccc(NC(=O)C(=O)NCc2ccco2)cc1 9.61%
Cc1ccc(NC(=O)CN(C)S(=O)(=O)c2cnc[nH]2)cc1 -2.03%
COc1ccccc1OCC(=O)NCC(c1ccc(Cl)cc1)N1CCOCC1 (configuration not stated) 1.74%
Cc1ccc(C)c(CN2C(=O)c3ccccc3S(=O)c3ccc(C(=O)N4CCN(c5cccc(Cl)c5)CC4)cc32)c1 (configuration not stated) -1.37%
Cc1ccc(NC(=O)Cn2c(=O)n(CCCCC(=O)NCc3ccccc3Cl)c(=O)c3ccccc32)cc1 2.45%
COc1ccc(C(CC(=O)NCc2ccccc2Cl)N2Cc3ccccc3C2=O)cc1OC (configuration not stated) -5.36%
CC(C)CC(=O)NC1(C(F)(F)F)C(=O)Nc2c1c(=O)[nH]c(=O)n2-c1ccccc1 (configuration not stated) -13%
